Data on 48 compounds can be found in PubChem BioAssay AID1963576 (National Center for Advancing Translational Sciences (NCATS), 2024).

The campaign covered roughly 46,000 compounds. About 60 (0.1%) were called active. Inconclusive results (about 3%) are left out. The call rests on the fitted dose curve; in most records, active means well fitted inhibition curve with a large enough effect; inconclusive means small, poorly fitted or top-dose-only effect; inactive means no such curve, though single readings can be large or run the other way. Some of the results follow.

This assay in a line: Primary qHTS assay for Inhibitors of ovarian cancer metastasis using an organotypic tumor microenvironment (TME) model. Further: nearly all actives have a fitted effect of over 65% in size.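 On activity change, negative = inhibition: plate controls were DMSO wells for no effect and tomatine positive control wells for full effect.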 To be noted: SKOV3ip1-GFP adhesion/invasion on 3D omental model, fluorescence; series mostly up to 45.8 µM; activity change, negative = inhibition: at the top concentration. The method in brief: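 Primary human omental fibroblast/mesothelial 3D culture pre-formed 48 h. SKOV3ip1-GFP cells added with compounds (0.36-46 umol/L), incubated 2 h RT/16 h 37 C, fixed; GFP cells quantified at 488/509 nm.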
For orientation: qHTS replaces the single test concentration by a dilution series.
In the case of `CCOC(=O)c1ccc(N2C(=O)c3[nH]nc(-c4ccc(C)cc4)c3C2c2ccc(O)cc2)cc1` (stereo not drawn), the “activity change, negative = inhibition” value is inactive: 4.13%.
Same read-out and setting: the same measure for `Cc1ccccc1CSc1ncc(Cl)c(C(=O)NCc2ccccc2)n1`: inactive: 1.5%.
As for `Fc1ccc(Nc2nc(SCc3cccc(F)c3)nc3ccccc23)cc1`, the result was inactive.
In the case of `Cc1cccc(CC(=O)NC2CC(=O)N(c3ccc4c(c3)OCCO4)C2)c1` (stereo not drawn), the “activity change, negative = inhibition” value was inactive: 8.62%.
Still for that read-out and setting: in the case of `CCN(CC)S(=O)(=O)c1ccc(NC(=O)c2nn(C)c3c2CSc2ccccc2-3)cc1` it was inactive: -7%; in that of `CCc1ccc(CNC(=O)Cn2ccc3cc(S(=O)(=O)N4CCCCCC4)ccc32)cc1`, inactive: -4.12%.
Same read-out and setting: the same measure for `O=C(NC1CCCC1)c1ccc2c(=O)n(Cc3ccccc3)c(SCc3ccc([N+](=O)[O-])cc3)nc2c1`: inactive: 10.2%; for `CCN(CCCNC(=O)CSc1cc(=O)n(CC)c2ccccc12)c1ccccc1`: inactive: 0.539%.
With `COc1ccc(OC)c2sc(N(Cc3cccnc3)C(C)=O)nc12`, the compound was classed as inactive.
With `CCOC(=O)N1CCN(Cc2nc3cc(NC(=O)CC)ccc3n2C(C)C)CC1`, the “activity change, negative = inhibition” value is inactive: 0.166%.
On the same count and under the same terms, the same measure for `CCc1ccc(-n2nc(CO)c(C(=O)NC(C)c3ccc(Cl)cc3)n2)cc1` (stereo not drawn): inactive: 25.3%; for `COc1cccc(CNC(=O)CN2C(=O)CCc3cc(S(=O)(=O)N4CCOCC4)ccc32)c1`: inactive: 0.82%; for `COc1ccc(SCc2cc(=O)c3ccc(C)c(C)c3[nH]2)cc1`: inactive: 0.969%.
As to `O=C(NCCc1ccc(Cl)cc1)c1cc(-c2ccccc2)n[nH]1`, the “activity change, negative = inhibition” value was inactive: 3.03%.
On the same count and under the same terms, in the case of `Cc1c(C)n(Cc2ccccc2)c2ccc(C(=O)N3CCN(c4ccccc4F)CC3)cc12` it was inactive: -6.38%.
On the same count and under the same terms, the same measure for `Cc1nc2ccn(Cc3cccnc3)c(=O)c2cc1C(=O)N1CCN(c2ccccc2F)CC1`: inactive: 6.12%.
On to `Cc1ccc(Sc2ccc(N3CCCC(C(=O)Nc4ccc(Br)cc4)C3)nn2)cc1` (stereo not drawn), for which the “activity change, negative = inhibition” value is inactive: -12%.
Same read-out and setting: the same measure for `COc1ccc(C2=C(C)C(N3CCC(C(=O)NCc4ccc(C)o4)CC3)=NS2(=O)=O)cc1`: inactive: -5.29%; for `COc1cc2nc(N(C)CCCNC(=O)C3CCCO3)nc(N)c2cc1OC` (stereo not drawn): inactive: -3.16%.
With `COc1cccc(CNC(=O)c2ccc(-c3nc(CS(=O)c4ccccc4)c(C)o3)cc2)c1` (stereo not drawn), the compound was called inactive.
In the case of `Cc1ccc(C)c(N2CCN(c3nc4ccccc4c(=O)n3-c3ccc(Cl)cc3)CC2)c1`, the “activity change, negative = inhibition” value is inactive: -14.1%.
On the same count and under the same terms, in the case of `COc1ccc2c(c1)Cc1sc(NC(=O)c3ccccc3C)nc1-2` it was inactive: -8.26%.
In the case of `CCOc1ccc(-c2nnc(SCC(=O)NC3CCCCC3)nc2-c2ccc(OCC)cc2)cc1`, the “activity change, negative = inhibition” value is inactive: -4.47%.
On the same count and under the same terms, in the case of `CC(=O)c1ccc(NC(=O)Nc2ccc3snnc3c2)cc1` it was inactive: -11.6%.
Regarding `CCOC(=O)c1ccc(N2C(=O)c3n[nH]c(-c4ccco4)c3C2c2ccc(OC)cc2OC)cc1` (stereo not drawn), the compound was classed as inactive.
Still for that read-out and setting: the same measure for `COc1cccc(-c2nc(S(=O)(=O)c3ccc(C)cc3)c(N3CCCCCC3)o2)c1`: “inactive”.
Turning to `Cc1ccc(NC(=O)Cc2ccc(NC(=O)N3CCCCc4ccccc43)cc2)cc1Cl`, the “activity change, negative = inhibition” value was inactive: -2.66%.
Same read-out and setting: in the case of `COc1ccc(/C=C/C(=O)Nc2ccc(C)cc2)cc1` it was inactive: -1.73%.
In the case of `CCN(CC)c1ccc(NC(=O)Cn2ncc3c(C)n(Cc4ccccc4F)c(C)c3c2=O)c(C)c1`, the “activity change, negative = inhibition” value is inactive: 9.57%.
On the same count and under the same terms, in the case of `CCCCOc1ccc(C(=O)NCC(c2ccc(Cl)cc2)N2CCOCC2)cc1` (stereo not drawn) it was inactive: 0.694%; in that of `Cc1cccc(C)c1-n1ncc(C(=O)NCCCN2CCCCC2)c1C1CCN(C(=O)OC(C)(C)C)CC1`, inactive: -23.4%; in that of `CCOC(=O)c1ccc(NC(=O)CN(Cc2ccc(C)cc2)S(=O)(=O)c2ccc(C)cc2)cc1`, inactive: 0.522%.
As for `COc1ccc(-n2c(SCc3nc(-c4ccc(C)cc4)no3)nnc2-c2ccccc2)cc1`, the compound was classed as inactive.
Regarding `CC(C)Oc1ccc(CNC(=O)CN2C(=O)CCn3nc(-c4cn(C)c5ccccc45)cc32)cc1`, the “activity change, negative = inhibition” value is inactive: -6.42%.
Take `COC(=O)c1nnn(-c2cccc(C)c2)c1N`: the compound was called inactive.
Take `O=C(Nc1ccc(Oc2ccccc2)cc1)c1ccc(F)c(S(=O)(=O)N2CCN(c3cccc(Cl)c3)CC2)c1`: the “activity change, negative = inhibition” value was inactive: 8.85%.
On to `Cc1ccc(C)c(N2C(=O)N(Cc3ccccc3C)c3ccccc3S2(=O)=O)c1`, for which the “activity change, negative = inhibition” value is inactive: 5.3%.
With `Cc1ccccc1OCC(=O)Nc1ccc2oc(-c3ccc(F)cc3)nc2c1`, the “activity change, negative = inhibition” value was inactive: 1.51%.
Still for that read-out and setting: the same measure for `Fc1ccccc1N1CCN(Cc2nnc(-c3ccc4c(c3)OCO4)o2)CC1`: inactive: 0.827%; for `CC1CN(C(=O)Nc2ccc(C(=O)NCc3ccccc3F)cc2)c2ccccc2S1` (stereo not drawn): inactive: -17.8%; for `COC(=O)c1ccc(NC(=O)CSc2n[nH]c(-c3ccccc3)n2)cc1`: inactive: 0.279%.
For the compound `CCN1CCN(CC(=O)Nc2ccc(-c3cccc4c(=O)cc(N5CCOCC5)oc34)c3sc4ccccc4c23)CC1`, the “activity change, negative = inhibition” value is inactive: 14.6%.
Same read-out and setting: in the case of `CCOC(=O)c1cc2c(=O)n3ccccc3nc2n(Cc2ccco2)c1=NC(=O)c1ccc(Br)cc1` it was inactive: -24.7%; in that of `Cc1ccc(NC(=O)c2nnn(Cc3ccccc3)c2N)cc1C`, inactive: -8.83%; in that of `CCc1ccc(NC(=O)CN(C)S(=O)(=O)c2ccc3c(c2)c(=O)n(C)c(=O)n3C)cc1`, inactive: 1.85%.
Same read-out and setting: in the case of `COc1ccc(NC(=O)c2ccco2)cc1NC(=O)COc1cccc(C)c1C` it was inactive: -3.27%; in that of `COc1ccc(C)cc1NC(=O)COc1cc(=O)n(C)c2ccccc12`, inactive: 47.4%; in that of `O=C(CSc1oc(-c2ccccc2)nc1S(=O)(=O)c1ccc(Br)cc1)c1ccccc1`, inactive: 1.03%.
